Reference: the supplement of paper PMC9513381
Recombinant human monoclonal antibodies (heavy:light variable regions). ELISA EC50 on the named antigen, from 10 µg/ml down; IC50 / IC90 against spike pseudovirus on 293T-ACE2 cells, 48 h; lower = stronger. Calls: IC50 above 1,000 ng/ml = non-neutralizing; EC50 above 1,000 ng/ml = non-binder. The source prints 1000 for neutralization that was not reached; it is given as >1000 ng/ml. Only binders of the Wuhan-Hu-1 domain have neutralization values.

B1: B002 (protein)
chain 1: QVQLVESGGGVVQPGRSLRLSCAASGFTFGKYGMHWVRQAPGKGLEWVAGISYDGDYKDYADSLKGRVTISRDNSNNKMYLQMNSLRAEDTAVYYCAKKISEYCGGDCHTAYFDYWGQGTLVTVSS
chain 2: DIQMTQSPVSLSASVGDRVTITCQASHDIANSLIWYQQRPGKAPKSLIYDASNLEAGVPSRFSGSGSGTDFSLTISSLQPEDLATYYCQQYHNMPLTFGGGTKVQTK
B2: B013 (protein)
chain 1: QVQLVESGGGVVQPGRSLRLSCAASGFTFSTYGMHWVRQAPGKGLEWVALISYDGSDKYYADSVKGRFTISRDNSKDTLFLRLNSLRAEDTAVYYCAKQISPYYASGRSYFDYWGQGVLVTVSS
chain 2: DIQMTQSPSSLSATVGDRVTITCQASQDISYYLGWYQQKPGKAPKLVIYDASDLEAGVPSTFSGSGSGTDFTFTISSLQPEDIATYYCQQYDNLPPTFGGGTKVEIK
B3: B2088 (protein)
chain 1: QVQLQESGPGLVKPSQTLSLTCTVSGGSISSSDYYWSWVRQRPGKGLEWIGYAYYTGITYYNPSLKSRLTISVDTSKNQFSLRLSSVTAADTAVYYCARIGRPFGVVPGFDNWGQGTLVTVSS
chain 2: QSALTQPASVSGSPGQSTTISCTGTSGDVGSYDLVSWYQHHPGKAPKLMIYEVTKRPSGVSNRFSGSKSGNTASLTISGLQAEDEADYYCCSYAGSSAVIFGGGTKLTVL
B4: B2087 (protein)
chain 1: EVQLVESGGGLVQPGRSLRLSCAASGFTFDNHAMHWVRQAPGKGLEWVSGVSWNSGTIGYADSVKGRFIIIRDNAKNSLYLQMNRLRPEDTALYYCAKDGSFLDTDHFYFDYWGQGTLVTVSS
chain 2: QSVLTQPPSVSAAPGQKVTISCSGTSSNIGNNYVSWYQQLPGIAPKLLIYDNNKRPSGIPDRFSGSKSGTSATLGITGLQTGDEADYYCGTWDSGLSAVVFGGGTKLTVL
B5: B009 (protein)
chain 1: EVQLVESGGGLIQPGGSLRLSCAASGLIVSSNYMSWVRQAPGKGLEWVSVVYPGGTTYSADSVKGRFTISRDNSKNTLYLQMNSLSAEDTAVYYCARVSGGAVKVLEDAFDIWGQGTMVTVSS
chain 2: SYELTQPPSVSVAPGKTARITCGGNNIGSKSVHWYQQKPGQAPVLVIYYDSARPSGIPERFSGSNSGNTATLTISRVEAGDEADYSCQVWDTSSDRGVFGGGTKLTVL
B6: B2093 (protein)
chain 1: QVQLVESGGGVVQPGNSLRLSCAASGFTFSTYGMHWVRQAPGKGLEWVAIIWYDGNNKFYGDSVKGRFTISRDNSKNKLYLQMNSLRAEDTAVYYCARSGIRFSEWLLQDYWGQGTLVTVSS
chain 2: EIVLTQSPGTLSLSPGERATLSCRASQSISISYLAWYQQKPGQAPRLLIYGASSRATGIPDRFSGSGSGTDFTLTISRLEPEDFAVYYCQQFGSTRATFGQGTKLEIK
B7: B2096 (protein)
chain 1: EVQLVESGGGLIQPGGSLRLSCAASGLTVSSNYMSWVRQAPGKGLEWVSVIYSGGSTFYSDSVKGRFTISRDNSKNTLYLQMNSLRAEDTAVYYCARDRKENYFDYWGQGTLVTVSS
chain 2: QSALTQPASVSGSPGQSIIISCTGTSSDVGGFHYVSWYQQHPGKAPKLMIYDVSNRPSGVSNRFSGSKSGNTASLTISGLQPEDEADYYCSSYTSGSTLFYVFGTGTKVTV
B8: B003 (protein)
chain 1: EVQLVESGGGLVQPGGSLRLSCAASEIIVGHNYMSWVRQAPGKGLEWVSIIYPGGTTYYADSVKGRFSISRDNSKNTLYLQMNSLRVEDTAVYYCARDLGPAGGMDVWGQGTTVTVSS
chain 2: AIQMTQSPSSLSASVGDRVTITCRASQDIGNDLGWYQQKPGKAPKLLIYAASSLQTGVPSRFSGSGSGTDFTLTISSLQPEDFATYYCLQDSNYPYTFGQGTKLEIK
B9: B011 (protein)
chain 1: QVQLVESGGGVVQPGRSLRLSCATSGFTFRSYAMHWVRQAPGKGLEWVAIISYDGSDKNYADSVKGRLTISRDNSKNILYLQMNSLRPEDTAIYYCARDVSCGGDCYPGGFDYWGQGTLVTVSS
chain 2: AIQMTQSPSSLSASVGDRVTITCRASQDIRNDLGWYQQKPGKAPKLLIYAASSLQNGVPSRFSGSGSGTDFTLTISSLQPEDFATYYCLQDYSSPWTFGQGTKVEFK
B10: B007 (protein)
chain 1: EVQLVESGGGLVQPGGSLTLSCAASGLTVSSNYMSWLRQTPGKGLEWVSTIYSGGSTYYADSVKGRFTISRDNSKNTLYLQMNSLRDEDTAVYYCARDLPPGTTAPHHYYDMDVWGQGTTVIV
chain 2: EIVLTQSPATLSLSPGERATLSCRASQSVSSYLAWYQQKPGQAPRLLIYDASNRATGFPARFSGSGSGTDFTLTINSLEPEDFAVYYCQQRSNWPYTFGQGTKLEIK
B11: B010 (protein)
chain 1: QVQLVESGGGVVQPGRSLRLSCATSGFTFRSYAMHWVRQAPGKGLEWVAIISHDGTEKFYADSVKGRITVSRDNSKNTLYLQLNTLRPEDTAVYYCARDVSCGGDCYPGGFDFWGQGTLVTVSS
chain 2: EIVLTQSPGTLSLSPGERATLSCRASQSVRSNYIAWYQQKPGQAPRLLINGASSRATGVPDRFSGSGSGTDFTLTISRLEPEDFAVYYCQHYDKSPSWTFGQGTKVEMK
B12: B2090 (protein)
chain 1: EVQLVESGGGLVQPGGSLRLSCAASGFTFSSYDMHWVRQETGKGLEWVSAIGTAGDTYYLGSVKGRFTISRENAKNSLYLQMNSLRAGDTAVYYCARAGNGYNLGSWYFDLWGRGTLVTVSS
chain 2: DIQLTQSPSSLSASVGDRVTITCRASQFISSYLNWYQQKPGKAPKLLIYAASTLQSGVPSRFSGGGSGTDFTLTISSLQREDFATYYCQQSYSMPPISFGQGTRLEIK
B13: B2095 (protein)
chain 1: QVQLQESGPGLVKASETLSLTCTVSGDSISRYYWSWIRQPPGKGLEWIGYIYDSRSTNYNPSLKSRVTISIDTSKNHFSLKLSSVTAADTAVYYCARHEVLTAILPYFDLWGRGTLVTVSS
chain 2: NFMLTQPHSVSESPGKTVTISCTRSSGSIDSNYVQWYQQRPGSAPTTVIFEDNQRPSGVPDRFSGSIDTSSNSASLTISGLKTEDEADYYCQSYDSSIHVVFGGGTKLTVL
B14: B006 (protein)
chain 1: QVQLQESGPGLVKPSETLSLTCTVSGGSISSYYWSWVRQSPGKGLEWIGYIYYSGSTNYNPSLKSRVTISVDTSKSQFSLKLSSVTAADTAVYYCASYYYDSSGYSYGLDVWGQGTTVTVSS
chain 2: DIQMTQSPSSVSASVGDRVTITCRASQGVAGWLAWYQQKPGKAPKLLIYATSTLQSGVPSRFSGSGSGTDFTLTISSLQPEDFATYYCQQTNSFPLTFGGGTKVDIK

These binders were tested against SARS-CoV-2 Wuhan-Hu-1 spike pseudovirus (assay: pseudovirus neutralization IC50; higher = weaker neutralization).
Method: (§1)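 Single-round luciferase reporter pseudovirus mixed with antibody dilutions and put on 293T-ACE2 cells for 48 h; signal relative to no-antibody wells, four-parameter fit.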

Row | Binder | pseudovirus neutralization IC50
1 | B1 | > 1 µg/mL
2 | B2 | > 1 µg/mL
3 | B3 | > 1 µg/mL
4 | B4 | 0.0155 µg/mL
5 | B5 | > 1 µg/mL
6 | B6 | > 1 µg/mL
7 | B7 | 0.0217 µg/mL
8 | B8 | 0.00931 µg/mL
9 | B9 | > 1 µg/mL
10 | B10 | > 1 µg/mL
11 | B11 | 0.0802 µg/mL
12 | B12 | > 1 µg/mL
13 | B13 | 0.016 µg/mL
14 | B14 | 0.719 µg/mL

The binders below were run against SARS-CoV-2 Wuhan-Hu-1 spike pseudovirus (assay: pseudovirus neutralization IC90; higher = weaker neutralization).
Method: as §1

Row | Binder | pseudovirus neutralization IC90
15 | B1 | > 1 µg/mL
16 | B2 | > 1 µg/mL
17 | B3 | > 1 µg/mL
18 | B4 | 0.386 µg/mL
19 | B5 | > 1 µg/mL
20 | B6 | > 1 µg/mL
21 | B7 | 0.141 µg/mL
22 | B8 | 0.0588 µg/mL
23 | B9 | > 1 µg/mL
24 | B10 | > 1 µg/mL
25 | B11 | > 1 µg/mL
26 | B12 | > 1 µg/mL
27 | B13 | 0.186 µg/mL
28 | B14 | > 1 µg/mL

What follows are binders tested against SARS-CoV-2 Delta (B.1.617.2) spike RBD (assay: ELISA binding EC50; higher = weaker binding; ELISA of recombinant human antibody on coated antigen, from 10 µg/ml in fourfold dilutions; four-parameter fit.).

Row | Binder | ELISA binding EC50
29 | B1 | 0.00639 µg/mL
30 | B2 | 0.0144 µg/mL
31 | B3 | 0.0347 µg/mL
32 | B4 | 0.0117 µg/mL
33 | B5 | > 1 µg/mL
34 | B6 | > 1 µg/mL
35 | B7 | 0.0916 µg/mL
36 | B8 | 0.00749 µg/mL
37 | B9 | 0.218 µg/mL
38 | B10 | 0.00271 µg/mL
39 | B11 | 0.00559 µg/mL
40 | B12 | 0.0348 µg/mL
41 | B13 | 0.0473 µg/mL
42 | B14 | 0.05 µg/mL

The binders below were run against SARS-CoV-2 Omicron BA.1 spike protein in the same assay as above.

Row | Binder | ELISA binding EC50
43 | B1 | 0.00602 µg/mL
44 | B2 | 0.00917 µg/mL
45 | B3 | 0.222 µg/mL
46 | B4 | 0.0317 µg/mL
47 | B5 | > 1 µg/mL
48 | B6 | > 1 µg/mL
49 | B7 | > 1 µg/mL
50 | B8 | 0.00789 µg/mL
51 | B9 | 0.418 µg/mL
52 | B10 | 0.0502 µg/mL
53 | B11 | 0.0123 µg/mL
54 | B12 | 0.31 µg/mL
55 | B13 | 0.03 µg/mL
56 | B14 | 0.00604 µg/mL

These binders were tested against SARS-CoV-2 Wuhan-Hu-1 spike receptor-binding domain in the same assay as above.

Row | Binder | ELISA binding EC50
57 | B1 | 0.00296 µg/mL
58 | B2 | 0.00365 µg/mL
59 | B3 | 0.00465 µg/mL
60 | B4 | 0.00248 µg/mL
61 | B5 | 0.208 µg/mL
62 | B6 | 0.00377 µg/mL
63 | B7 | 0.011 µg/mL
64 | B8 | 0.00338 µg/mL
65 | B9 | 0.00445 µg/mL
66 | B10 | 0.00143 µg/mL
67 | B11 | 0.00371 µg/mL
68 | B12 | 0.00543 µg/mL
69 | B13 | 0.00677 µg/mL
70 | B14 | 0.00556 µg/mL
